# In publication PMC12820563, “FoxP3 forms a head-to-head dimer in vivo and stabilizes its multimerization on adjacent microsatellites”:
# Some of the results follow.
# Molecular target: T1, MBP-FoxP1dN (Mus musculus, UniProt P58462 326-579)
# T1 sequence: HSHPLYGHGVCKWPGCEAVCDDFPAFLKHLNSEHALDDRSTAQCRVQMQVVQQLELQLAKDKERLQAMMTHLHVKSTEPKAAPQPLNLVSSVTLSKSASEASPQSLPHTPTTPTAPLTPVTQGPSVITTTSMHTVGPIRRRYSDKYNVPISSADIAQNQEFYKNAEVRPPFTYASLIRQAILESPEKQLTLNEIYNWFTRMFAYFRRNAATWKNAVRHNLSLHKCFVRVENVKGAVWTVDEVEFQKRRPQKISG
# Assay: PD-seq (MBP pull-down with sequencing); 20 mM Tris-HCl pH 7.5, 100 mM NaCl, 1.5 mM MgCl2, 0.4 uM protein, 0.1 uM dsDNA library, 30 min, room temperature, amylose pull-down; high values mean tight binding
# Details: protein: recombinant; tags: His6-MBP; chain copies: 2; dsDNA, one strand shown
# Method in brief: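 A degenerate double-stranded DNA library, filled in with Klenow, was added at 0.1 µM to 0.4 µM His6-MBP-tagged mouse FoxP3 or FoxP1 fragment lacking the N-terminus, expressed in E. coli. Incubation lasted 30 min at room temperature in Tris pH 7.5 buffer with NaCl and MgCl2, after which complexes were collected on amylose resin, washed three times, digested with proteinase K to free the DNA, barcoded by PCR and sequenced by Illumina. Binding is the pooled-replicate reads-per-million enrichment of pull-down over input.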
row,Sequence,binding signal
1,GATGATTGTTCTCCCAGCTGATGAATTCCAACATTCGAGTAAACAAATTTTCCTAATCTTTCTGTTCAAGCGCCATCTAC,0.961 RPM ratio (pull-down/input)
2,GATGATTGTTCTCCCAGCTGATGAATTTGAGGTGTCGAGTAAACAAATTTTCCTAATCTTTCTGTTCAAGCGCCATCTAC,0.817 RPM ratio (pull-down/input)
3,GATGATTGTTCTCCCAGCTGATGAATTAATCTGGTCGAGTAAACAAATTTTCCTAATCTTTCTGTTCAAGCGCCATCTAC,0.789 RPM ratio (pull-down/input)
4,GATGATTGTTCTCCCAGCTGATGAATTGTGTCTCTCGAGTAAACAAATTTTCCTAATCTTTCTGTTCAAGCGCCATCTAC,1.1 RPM ratio (pull-down/input)
5,GATGATTGTTCTCCCAGCTGATGAATTCGATAGTTCGAGTAAACAAATTTTCCTAATCTTTCTGTTCAAGCGCCATCTAC,0.89 RPM ratio (pull-down/input)
6,GATGATTGTTCTCCCAGCTGATGAATTCTAGCGCTCGAGTAAACAAATTTTCCTAATCTTTCTGTTCAAGCGCCATCTAC,0.816 RPM ratio (pull-down/input)
7,GATGATTGTTCTCCCAGCTGATGAATTCGTGGTGTCGAGTAAACAAATTTTCCTAATCTTTCTGTTCAAGCGCCATCTAC,0.882 RPM ratio (pull-down/input)
8,GATGATTGTTCTCCCAGCTGATGAATTGAAACAGTCGAGTAAACAAATTTTCCTAATCTTTCTGTTCAAGCGCCATCTAC,0.971 RPM ratio (pull-down/input)
9,GATGATTGTTCTCCCAGCTGATGAATTGCGTAGGTCGAGTAAACAAATTTTCCTAATCTTTCTGTTCAAGCGCCATCTAC,0.97 RPM ratio (pull-down/input)
10,GATGATTGTTCTCCCAGCTGATGAATTTTCAATTTCGAGTAAACAAATTTTCCTAATCTTTCTGTTCAAGCGCCATCTAC,0.889 RPM ratio (pull-down/input)
11,GATGATTGTTCTCCCAGCTGATGAATTTAAGGGATCGAGTAAACAAATTTTCCTAATCTTTCTGTTCAAGCGCCATCTAC,0.794 RPM ratio (pull-down/input)
12,GATGATTGTTCTCCCAGCTGATGAATTCGGGGTATCGAGTAAACAAATTTTCCTAATCTTTCTGTTCAAGCGCCATCTAC,0.904 RPM ratio (pull-down/input)
13,GATGATTGTTCTCCCAGCTGATGAATTATGTTGTTCGAGTAAACAAATTTTCCTAATCTTTCTGTTCAAGCGCCATCTAC,2.67 RPM ratio (pull-down/input)
14,GATGATTGTTCTCCCAGCTGATGAATTGATTCAGTCGAGTAAACAAATTTTCCTAATCTTTCTGTTCAAGCGCCATCTAC,0.922 RPM ratio (pull-down/input)
15,GATGATTGTTCTCCCAGCTGATGAATTAACCCCCTCGAGTAAACAAATTTTCCTAATCTTTCTGTTCAAGCGCCATCTAC,0.867 RPM ratio (pull-down/input)
16,GATGATTGTTCTCCCAGCTGATGAATTCCTTGCATCGAGTAAACAAATTTTCCTAATCTTTCTGTTCAAGCGCCATCTAC,1.12 RPM ratio (pull-down/input)
17,GATGATTGTTCTCCCAGCTGATGAATTTAGAATATCGAGTAAACAAATTTTCCTAATCTTTCTGTTCAAGCGCCATCTAC,1.08 RPM ratio (pull-down/input)
18,GATGATTGTTCTCCCAGCTGATGAATTGGCCGACTCGAGTAAACAAATTTTCCTAATCTTTCTGTTCAAGCGCCATCTAC,0.77 RPM ratio (pull-down/input)
19,GATGATTGTTCTCCCAGCTGATGAATTCTATGTCTCGAGTAAACAAATTTTCCTAATCTTTCTGTTCAAGCGCCATCTAC,0.922 RPM ratio (pull-down/input)
20,GATGATTGTTCTCCCAGCTGATGAATTGTCCCGATCGAGTAAACAAATTTTCCTAATCTTTCTGTTCAAGCGCCATCTAC,0.937 RPM ratio (pull-down/input)

row,Sequence,binding signal
1,GATGATTGTTCTCCCAGCTGATGAATTTGTGTATTCGAGTAAACAAATTTTCCTAATCTTTCTGTTCAAGCGCCATCTAC,1.98 RPM ratio (pull-down/input)
2,GATGATTGTTCTCCCAGCTGATGAATTCCGTCGATCGAGTAAACAAATTTTCCTAATCTTTCTGTTCAAGCGCCATCTAC,0.898 RPM ratio (pull-down/input)
3,GATGATTGTTCTCCCAGCTGATGAATTCCCACTCTCGAGTAAACAAATTTTCCTAATCTTTCTGTTCAAGCGCCATCTAC,0.819 RPM ratio (pull-down/input)
4,GATGATTGTTCTCCCAGCTGATGAATTCGTCCCATCGAGTAAACAAATTTTCCTAATCTTTCTGTTCAAGCGCCATCTAC,0.922 RPM ratio (pull-down/input)
5,GATGATTGTTCTCCCAGCTGATGAATTAACGTCCTCGAGTAAACAAATTTTCCTAATCTTTCTGTTCAAGCGCCATCTAC,0.844 RPM ratio (pull-down/input)
6,GATGATTGTTCTCCCAGCTGATGAATTTCCAGCCTCGAGTAAACAAATTTTCCTAATCTTTCTGTTCAAGCGCCATCTAC,0.805 RPM ratio (pull-down/input)
7,GATGATTGTTCTCCCAGCTGATGAATTCGAAATCTCGAGTAAACAAATTTTCCTAATCTTTCTGTTCAAGCGCCATCTAC,0.792 RPM ratio (pull-down/input)
8,GATGATTGTTCTCCCAGCTGATGAATTAAGACCGTCGAGTAAACAAATTTTCCTAATCTTTCTGTTCAAGCGCCATCTAC,0.862 RPM ratio (pull-down/input)
9,GATGATTGTTCTCCCAGCTGATGAATTGAAGTTGTCGAGTAAACAAATTTTCCTAATCTTTCTGTTCAAGCGCCATCTAC,1.25 RPM ratio (pull-down/input)
10,GATGATTGTTCTCCCAGCTGATGAATTCTACAGTTCGAGTAAACAAATTTTCCTAATCTTTCTGTTCAAGCGCCATCTAC,0.868 RPM ratio (pull-down/input)
11,GATGATTGTTCTCCCAGCTGATGAATTGGGCATCTCGAGTAAACAAATTTTCCTAATCTTTCTGTTCAAGCGCCATCTAC,1.03 RPM ratio (pull-down/input)
12,GATGATTGTTCTCCCAGCTGATGAATTTAGGTTTTCGAGTAAACAAATTTTCCTAATCTTTCTGTTCAAGCGCCATCTAC,1.08 RPM ratio (pull-down/input)
13,GATGATTGTTCTCCCAGCTGATGAATTTCCTGTCTCGAGTAAACAAATTTTCCTAATCTTTCTGTTCAAGCGCCATCTAC,0.814 RPM ratio (pull-down/input)
14,GATGATTGTTCTCCCAGCTGATGAATTAGATTTGTCGAGTAAACAAATTTTCCTAATCTTTCTGTTCAAGCGCCATCTAC,0.997 RPM ratio (pull-down/input)
15,GATGATTGTTCTCCCAGCTGATGAATTGCACACTTCGAGTAAACAAATTTTCCTAATCTTTCTGTTCAAGCGCCATCTAC,1.24 RPM ratio (pull-down/input)
16,GATGATTGTTCTCCCAGCTGATGAATTTTGCACTTCGAGTAAACAAATTTTCCTAATCTTTCTGTTCAAGCGCCATCTAC,0.981 RPM ratio (pull-down/input)
17,GATGATTGTTCTCCCAGCTGATGAATTGTTTATGTCGAGTAAACAAATTTTCCTAATCTTTCTGTTCAAGCGCCATCTAC,2.77 RPM ratio (pull-down/input)
18,GATGATTGTTCTCCCAGCTGATGAATTTGTGTGGTCGAGTAAACAAATTTTCCTAATCTTTCTGTTCAAGCGCCATCTAC,1.18 RPM ratio (pull-down/input)
19,GATGATTGTTCTCCCAGCTGATGAATTAGAGAAGTCGAGTAAACAAATTTTCCTAATCTTTCTGTTCAAGCGCCATCTAC,0.918 RPM ratio (pull-down/input)
20,GATGATTGTTCTCCCAGCTGATGAATTTGGAACCTCGAGTAAACAAATTTTCCTAATCTTTCTGTTCAAGCGCCATCTAC,0.828 RPM ratio (pull-down/input)
